Counter-ions that a name gives are not always drawn. The list shows a part of the results. Single values are uncertain, as repeats are few or missing.
What follows are compounds tested on Ov4Carbo (assay: log2 surviving fraction (library drug vs vehicle, or drug + carboplatin vs carboplatin alone; relative to plate median); ovarian cancer lines: OVCAR4 is platinum-sensitive and Ov4Carbo platinum-resistant; higher = more cell survival). Details: library drug concentration 10 µM; 7 days; carboplatin co-treatment 5 µM.

Structure (SMILES)	log2 surviving fraction
C=C[C@]1(C)C[C@@H](OC(=O)CSC(C)(C)CNC(=O)[C@H](N)C(C)C)[C@]2(C)[C@H](C)CC[C@]3(CCC(=O)[C@H]32)[C@@H](C)[C@@H]1O [Valnemulin HCl]	-2.24
O=C(c1ccccc1)c1ccc2n1CCC2C(=O)O (stereo not given) [Ketorolac (Toradol)]	0.515
CC(C)(C)c1nc(-c2cccc(NS(=O)(=O)c3c(F)cccc3F)c2F)c(-c2ccnc(N)n2)s1	-2.19
CN1CCN2c3ccccc3Cc3ccccc3C2C1 (stereo not given) [Mianserin hydrochloride]	-0.494
CC(C(=O)O)c1ccc2c(c1)CC(=O)c1ccccc1S2 (stereo not given) [Zaltoprofen]	-0.047
Nc1ccn([C@H]2CC[C@@H](CO)O2)c(=O)n1 [Zalcitabine]	0.218
CC[C@@H](C(N)=O)N1CCCC1=O [Levetiracetam]	-0.176
Cc1cn([C@H]2C=C[C@@H](CO)O2)c(=O)[nH]c1=O [Stavudine]	0.71
CNC[C@H](O)c1ccc(O)c(O)c1 [Epinephrine bitartrate (Adrenalinium)]	-0.0807
CCN(CC)CCNC(C(=O)OCCC(C)C)c1ccccc1 (stereo not given) [Camylofin Chlorhydrate]	-2.65
CN1C(CCl)Nc2cc(Cl)c(S(N)(=O)=O)cc2S1(=O)=O (stereo not given) [Methyclothiazide]	0.682
CN1C[C@@H]2C[C@H]1CN2c1cc2c(cc1F)c(=O)c(C(=O)O)cn2C1CC1 [Danofloxacin Mesylate]	-0.286
CCCCC(CC)CNC(=N)NC(=N)NCCCCCCNC(=N)NC(=N)NCC(CC)CCCC (stereo not given) [Alexidine HCl]	-8.19
CO[C@H]1/C=C/O[C@@]2(C)Oc3c(C)c(O)c4c(O)c(c(/C=N/N5CCN(C)CC5)c(O)c4c3C2=O)NC(=O)/C(C)=C\C=C\[C@H](C)[C@H](O)[C@@H](C)[C@@H](O)[C@@H](C)[C@H](OC(C)=O)[C@@H]1C [Rifampin (Rifadin, Rimactane)]	1.04
CC[C@H]1CN2CCc3cc(OC)c(OC)cc3[C@@H]2C[C@@H]1C[C@H]1NCCc2cc(OC)c(OC)cc21 [Emetine]	-7.16
COC(=O)CCc1ccc(OCC(O)CNC(C)C)cc1 (stereo not given) [Esmolol HCl]	0.0664
O=C(Nc1ccccc1)c1ccccc1O [Salicylanilide]	-0.932
CC(C)OC(=O)OCOP(=O)(CO[C@H](C)Cn1cnc2c(N)ncnc21)OCOC(=O)OC(C)C [Tenofovir Disoproxil Fumarate]	-0.364
CN(C)C(=O)Oc1ccc[n+](C)c1 [Pyridostigmine Bromide (Mestinon)]	-0.0639
N=C(N)NS(=O)(=O)c1ccc(N)cc1 [Sulfaguanidine]	-0.118

Structure (SMILES)	log2 surviving fraction
Cc1cc(N)c2ccccc2[n+]1CCCCCCCCCC[n+]1c(C)cc(N)c2ccccc21 [Dequalinium chloride]	-7.11
c1ccc2c(c1)sc1ccccc12 [Dibenzothiophene]	-1.13
CC1(C)O[C@@H]2C[C@H]3[C@@H]4CCC5=CC(=O)C=C[C@]5(C)[C@@]4(F)[C@@H](O)C[C@]3(C)[C@]2(C(=O)CO)O1 [Triamcinolone Acetonide]	0.132
CCOC(=O)C1=C[C@@H](OC(CC)CC)[C@H](NC(C)=O)[C@@H](N)C1 [Oseltamivir phosphate (Tamiflu)]	0.121
CC(C)NCC(O)COc1cccc2[nH]ccc12 (stereo not given) [Pindolol]	0.0562
CCOC(=O)c1c(CSc2ccccc2)n(C)c2cc(Br)c(O)c(CN(C)C)c12 [Arbidol HCl]	-0.621
CC1COc2c(N3CCN(C)CC3)c(F)cc3c(=O)c(C(=O)O)cn1c23 (stereo not given) [Ofloxacin (Floxin)]	0.413
COc1cc(OC)c(C(=O)CCCN2CCCC2)c(OC)c1 [Buflomedil HCl]	0.217
CC[N+]1(C)CCCC(OC(=O)C(O)(c2ccccc2)c2ccccc2)C1 (stereo not given) [Pipenzolate Bromide]	0.197
CC[C@@H]1C(=O)OC[C@@H]1Cc1cncn1C [Pilocarpine HCl]	0.946
CCC(C)(C)C(=O)O[C@H]1C[C@@H](C)C=C2C=C[C@H](C)[C@H](CC[C@@H]3C[C@@H](O)CC(=O)O3)[C@H]21 [Simvastatin (Zocor)]	-7.05
C[C@@H](O[C@H]1OCCN(Cc2nn(P(=O)(O)O)c(=O)[nH]2)[C@H]1c1ccc(F)cc1)c1cc(C(F)(F)F)cc(C(F)(F)F)c1 [Fosaprepitant dimeglumine]	-1.9
CCCCCN(C)CCC(O)(P(=O)(O)O)P(=O)(O)O [Ibandronate sodium]	-0.467
CCOC(=O)[C@H](CCc1ccccc1)N[C@@H](C)C(=O)N1Cc2ccccc2C[C@H]1C(=O)O [Quinapril HCl (Accupril)]	0.911
O=C1NCC2(CCN(CCc3ccccc3)CC2)O1 [Fenspiride HCl]	-0.309
CN[C@@H]1[C@H](O)[C@H](NC)[C@H]2O[C@@]3(O)C(=O)C[C@@H](C)O[C@H]3O[C@@H]2[C@H]1O [Spectinomycin  hydrochloride]	0.912
CN(C)[C@@H](CCOc1cccc2ccccc12)c1ccccc1 [Dapoxetine hydrochloride (Priligy)]	-1.05
CN(C)C(=O)Oc1cccc([N+](C)(C)C)c1 [Neostigmine bromide (Prostigmin)]	-0.201
C[C@]12CC[C@@H]3c4ccc(O)cc4CC[C@H]3[C@@H]1CCC2=O [Estrone]	-0.599
C=C(c1ccc(C(=O)O)cc1)c1cc2c(cc1C)C(C)(C)CCC2(C)C [Bexarotene]	-0.295

From the supplement of paper PMC8047034
